# PubChem BioAssay AID602340 (Broad Institute, 2012)
# “And” between values parts separate entries of the source, which are not always exact repeats. Equal values may be shown once. The campaign covered roughly 330,000 compounds. About 2,600 (0.79%) were called active. The inconclusive results got no clear call from the source; some entries with a clear call stand among them for comparison.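 Rule for the calls: active = mean ATP rescue above about 67%, or every replicate alone reaching that limit (limit read from the data, passing the limit was not always enough); inconclusive = no clear call, values can overlap the other calls; inactive = mean under the limit and some replicate under it.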
# Experiment: suppressors of statin myotoxicity in C2C12 myotubes, primary screen, cell-based, single point, plate reader (AID 602340);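 note: myotubes were challenged with 10 µM simvastatin during compound exposure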
# Conditions: C2C12 myotubes + simvastatin, ATP luminescence, 48 h; at 7.49 µM; active compounds read high; scaled: DMSO 0, geranylgeraniol control 100
row,Structure (SMILES),rescue of ATP level
1,C[C@H](CO)N1C[C@H](C)[C@@H](CN(C)S(=O)(=O)c2cccs2)Oc2c(NS(C)(=O)=O)cccc2C1=O,inactive: -13.6%
2,COc1cc2c(cc1OC)C(COc1ccc([N+](=O)[O-])cc1)N(C(C)=O)CC2 (stereo unspecified),inconclusive: -8.28%
3,COC(=O)c1ccc(NCc2c(O)ccc(O)c2Br)cc1Cl,inactive: 1.4%
4,Cc1ccc(OCC(=O)N(C)CCc2ccccn2)cc1,inconclusive: 82.6%
5,O=C(c1cccc(F)c1)N1C[C@@H]2[C@H](c3ccccc31)[C@H](CO)N2C(=O)c1ccc(F)cc1,inactive: -10.5%
6,COc1ccc(S(=O)(=O)N2CCC(C)CC2)cc1OC,inactive: -2.68%
7,COc1ccc(S(=O)(=O)N(C)C[C@@H]2Oc3ccc(N(C)C)cc3CC(=O)N([C@H](C)CO)C[C@H]2C)cc1,inactive: 5.62%
8,CCCCOC(=O)CSc1nc(N)c(C#N)c(-c2ccc(OC)cc2)c1C#N,active: 90.2%
9,COc1ccc2c(c1)N(C)C(=O)CC(c1ccccc1)=N2,active: 108%
10,C[C@H]1CN([C@@H](C)CO)C(=O)c2cc(-c3cccnc3)cnc2O[C@@H]1CN(C)Cc1ccc(-c2ccccc2)cc1,inactive: -26.3%
11,Cc1noc(C)c1S(=O)(=O)Nc1ccc2c(c1)C(=O)N([C@@H](C)CO)C[C@H](C)[C@H](CN(C)S(=O)(=O)c1ccc(Cl)cc1)OCCCC[C@@H](C)O2,inconclusive: 75.8%
12,CCCCNC(=O)C1Cc2cc(S(=O)(=O)N3CCCC3)ccc2N1C(C)=O (stereo unspecified),inactive: -3.69%
13,Cc1ccc2c(c1)c1ccc3c(c1n2C)C(=O)C=CC3=O,inactive: -222%
14,COC(=O)c1ccc(CSc2nnc(Nc3ccc(C)cc3)s2)o1,active: 95.1%
15,NC12CC3CC(C1)CC(CO)(C3)O2,active: 111%
16,CO/N=C(\C)C(Cc1ccc(Cl)nc1)Cc1ccc(Cl)nc1,inconclusive: 5.52%
17,CCn1c(CN2c3ccccc3Sc3ccccc32)n[nH]c1=S,active: 86%
18,Cc1noc(C)c1NC(=O)Nc1cccc2c1O[C@@H](CN(C)Cc1ccc(-c3ccccc3)cc1)[C@H](C)CN([C@@H](C)CO)C2=O,inconclusive: 71.9%
19,COc1ccc(C(=O)NN(C)c2nc(-c3ccccc3)nnc2C(F)(F)F)cc1,active: 74.1%
20,C[C@H](CO)N1C[C@H](C)[C@@H](CN(C)CC2CCCCC2)Oc2c(NC(=O)C3CC3)cccc2C1=O,inactive: -5.73% and inactive: 35.7%
21,COCCNC(=O)C[C@H]1CC[C@H]2[C@@H](COc3ccc(NC(=O)c4cnccn4)cc3C(=O)N2C)O1,inactive: 17.3%
22,COc1cccc(OC)c1C(=O)Nc1ccccc1NC(=O)c1c(OC)cccc1OC,inconclusive: -1.52%
23,COc1ccc(C(=O)N/N=C(/C)c2cccc(NC(=O)c3ccncc3)c2)cc1OC,inactive: 2.46%
24,O=S(=O)(c1ccc(S(=O)(=O)N2CCCC2)cc1)N1CCCCCC1,inactive: -15.9%
25,Cn1cc(S(=O)(=O)NCC2CCCO2)c(=O)n(C)c1=O (stereo unspecified),inconclusive: -1.73%
26,O=C(NCc1ccco1)C(c1ccco1)N(CCc1ccccc1)C(=O)Cn1nnc2ccccc21 (stereo unspecified),inconclusive: 74.2%

row,Structure (SMILES),rescue of ATP level
1,CCCCCCn1c(N2CCN(c3ccccc3)CC2)nc2c1c(=O)[nH]c(=O)n2C,inconclusive: 71.6%
2,O=C(O)c1ccccc1SCCS(=O)(=O)c1ccc(Cl)cc1Cl,inconclusive: 0.73%
3,O=C(NCc1ccccn1)c1cc2cc(Br)ccc2oc1=O,inconclusive: 71.2%
4,C[C@@H]1CCCCO[C@@H](CN(C)C(=O)c2ccccc2)[C@H](C)CN([C@@H](C)CO)C(=O)c2cc(NS(=O)(=O)c3cccs3)ccc2O1,active: 90.4%
5,CCOc1cc(C2C(C(=O)c3ccco3)=C(O)C(=O)N2Cc2ccccc2)ccc1O (stereo unspecified),inconclusive: 75.4%
6,O=C(C1CC1)N1CC[C@@H]2[C@H]1c1cc(C#Cc3ccc(F)cc3)ccc1N[C@@H]2CO,inactive: 11.2%
7,COc1cccc(NC(=O)N(C)C[C@H]2Oc3cc(-c4ccccc4F)ccc3S(=O)(=O)N([C@H](C)CO)C[C@@H]2C)c1,inactive: -10.6%
8,C[C@H]1CN([C@@H](C)CO)C(=O)c2cc(NS(=O)(=O)c3ccc(Cl)cc3)ccc2O[C@H]1CN(C)Cc1ccc(Oc2ccccc2)cc1,inconclusive: 65.9%
9,C[C@H]1CN([C@@H](C)CO)C(=O)c2cc(NC(=O)Cn3cnnn3)ccc2O[C@H]1CN(C)C(=O)Nc1ccc(F)cc1,inactive: 16.1%
10,CCCNC(=O)N(C)C[C@@H]1Oc2cc(-c3ccccc3)ccc2S(=O)(=O)N([C@@H](C)CO)C[C@@H]1C,inconclusive: 39.9%
11,C[C@@H]1CN([C@@H](C)CO)C(=O)c2cc(C#Cc3ccccc3F)cnc2O[C@H]1CN(C)C(=O)Cc1ccccc1,inconclusive: 75.9%
12,COCc1cc(=O)[nH]c(N2CCN(Cc3ccc4c(c3)OCO4)CC2)n1,inconclusive: 8.73%
13,Clc1ccccc1CNc1ncnc2nc[nH]c12,active: 101%
14,Cc1[nH]n(-c2ccccc2)c(=O)c1C(C[N+](=O)[O-])c1ccccc1Cl (stereo unspecified),active: 118%
15,O=C(COc1ccc(Cl)cc1)Nc1nc(-c2ccncc2)cs1,inactive: -11.5%
16,Cc1noc(C)c1NC(=O)Nc1ccc2c(c1)C(=O)N([C@H](C)CO)C[C@@H](C)[C@H](CN(C)C(=O)Nc1ccccc1)OCCCC[C@@H](C)O2,inconclusive: 66.6%
17,O=C(N[C@H]1CC[C@@H](CC(=O)N2CCCCC2)O[C@@H]1CO)c1ccc2c(c1)OCO2,inactive: 0.728%
18,Cc1cc(C)c(C(=O)CSC2=NC(N)=C(C#N)C3(CCCCC3)C2C(N)=O)cc1C (stereo unspecified),inconclusive: 72.8%
19,COc1ccc(-c2csc(C(NC(C)=O)c3cccc(F)c3)n2)cc1 (stereo unspecified),active: 76.1%
20,Fc1cccc(Cl)c1Cn1nnc(-c2ccc(N3CCOCC3)cc2)n1,active: 99.2%
21,C[C@H]1CN([C@@H](C)CO)C(=O)c2cc(C#Cc3cccc(F)c3)cnc2O[C@@H]1CN(C)C(=O)C1CCCCC1,inconclusive: 67.7%
22,COc1cc(NC(=O)c2noc3c2CCC3)c(OC)cc1Cl,inconclusive: 69.3%
23,NC(=O)CN1CCN(c2ccccc2F)CC1,inactive: -4.19%
24,Cc1c(C)n(CCO)c2ncnc(Nc3ccc(F)cc3)c12,inactive: -3.18%
25,O=C1Nc2ccccc2C1=Nc1cccc(Cl)c1,inactive: 2.3%
26,CCOC(=O)Cc1csc(NC(=O)CSc2nnnn2-c2ccc(CC)cc2)n1,inactive: 11.2%

row,Structure (SMILES),rescue of ATP level
1,C[C@@H]1CN([C@@H](C)CO)C(=O)Cc2cc(NS(=O)(=O)c3ccc(Cl)cc3)ccc2O[C@@H]1CN(C)Cc1ccc(C(F)(F)F)cc1,inconclusive: 69%
2,C[C@H]1CN([C@@H](C)CO)C(=O)c2cc(NC(=O)Cc3cn(C)c4ccccc34)ccc2O[C@H]1CN(C)S(=O)(=O)c1cccs1,inconclusive: 94.1%
3,O=C(CCCSc1nc(-c2ccco2)cc(C(F)(F)F)n1)NCc1cccs1,active: 126%
4,C=CCn1c(=N)c(C#N)cc2c(=O)n3ccccc3nc21,active: 93.5%
5,Cn1cc([N+](=O)[O-])c(C(=O)Nc2ccc(Br)cn2)n1,inconclusive: 70.6%
6,C[C@@H]1CN([C@@H](C)CO)C(=O)c2cc(-c3ccc(C#N)cc3)cnc2O[C@@H]1CN(C)CC1CCOCC1,inactive: 12%
7,CCOc1ccc(S(=O)(=O)N2CC(=O)Nc3ccccc32)cc1C#N,inconclusive: -12.7%
8,N#Cc1c(NC(=O)CSc2n[nH]c(Cc3ccccc3)n2)oc(-c2ccccc2)c1-c1ccccc1,inconclusive: 69.6%
9,CC(=O)c1ccc(NC(=O)CSc2nc3[nH]ncc3c(=O)[nH]2)cc1,inactive: 13.9%
10,CCC(=O)c1ccc(OCC(=O)O)cc1,active: 107%
11,C[C@@H]1CN([C@@H](C)CO)C(=O)c2cccc(NC(=O)C3CCOCC3)c2O[C@@H]1CN(C)S(=O)(=O)c1cn(C)cn1,inconclusive: 65.1%
12,C[C@H]1CN([C@@H](C)CO)C(=O)Cc2cc(NC(=O)CCCCCC(=O)Nc3ccccc3N)ccc2O[C@@H]1CN(C)Cc1ccc(C(F)(F)F)cc1,inconclusive: 84.2%
13,C[C@@H]1CN([C@@H](C)CO)C(=O)c2cccc(NS(=O)(=O)c3ccccc3)c2O[C@@H]1CN(C)S(=O)(=O)c1cccs1,inconclusive: 71.8%
14,CCn1c(SCC(=O)N2CCCC2)nnc1-c1ccc(N)cc1,active: 124%
15,CN1CCN(C(=O)c2cc(-c3ccccc3)on2)CC1,inactive: 12.8%
16,Cc1cc2c(c(=O)n1Cc1cccnc1)C(c1ccc(F)cc1)C(C#N)=C(N)O2 (stereo unspecified),active: 110%
17,Oc1ccccc1/C=N/Nc1ncc(Br)cn1,inconclusive: 72.3%
18,O=C(CSc1nnc(NC(=O)c2ccco2)s1)Nc1ccc(F)cc1,inactive: 4.52%
19,C[C@@H]1CN([C@H](C)CO)C(=O)Cc2cc(NC(=O)CCCCCC(=O)Nc3ccccc3N)ccc2O[C@@H]1CN(C)Cc1ccc(Cl)c(Cl)c1,active: 84.9%
20,CCCC(O)(c1ccc(Cl)cc1)C(CN1CCOCC1)c1ccccc1 (stereo unspecified),inconclusive: 65.9%
21,O=C(C[C@H]1CC[C@@H](NC(=O)c2ccc3c(c2)OCO3)[C@H](CO)O1)NCc1ccc(Oc2ccccc2)cc1,active: 67.6%
22,COc1ccccc1-c1nnc(SCC(=O)N2CC(C)CC(C)C2)o1 (stereo unspecified),active: 120%
23,CC1=CC(C)(C)N2C(=O)C3(C(C#N)=C(N)Oc4cc(O)ccc43)c3cccc1c32 (stereo unspecified),inconclusive: 67.3%
24,C[C@H](CO)N1C[C@H](C)[C@@H](CN(C)S(=O)(=O)c2ccc(Cl)cc2)Oc2c(NS(C)(=O)=O)cccc2C1=O,inactive: -7.41%
